# Measurements as given in the supplement of paper PMC8728848.
# Some of the results follow.
# What was measured:
# Test in all cases: glycan array binding signal (z-score within array); higher = stronger binding
# Settings in all cases: glycan notation: IUPAC condensed, linker removed
# [1] = target: Neu5Ac(a2-6)Gal(b1-4)GlcNAc(b1-3)Gal(b1-4)GlcNAc(b1-3)Gal(b1-4)GlcNAc
# Method in brief: (§1)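 Columns mapping to the same glycan were averaged after glycan names were converted to IUPAC-condensed notation. The data come from 3228 arrays in the Consortium for Functional Glycomics database, limited to those with an available protein sequence. Binding is reported as a within-array Z-score averaged across arrays of one protein sequence and across linkers.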
# [2] = target: Neu5Ac(a2-6)Gal(b1-4)GlcNAc(b1-3)Gal(b1-4)GlcNAc(b1-3)Gal(b1-4)GlcNAc(b1-2)Man(a1-3)[Neu5Ac(a2-6)Gal(b1-4)GlcNAc(b1-3)Gal(b1-4)GlcNAc(b1-3)Gal(b1-4)GlcNAc(b1-2)Man(a1-6)]GalNAc
# Method in brief: as §1
# [3] = target: Neu5Ac(a2-6)Gal(b1-4)GlcNAc(b1-3)Gal(b1-4)GlcNAc(b1-3)GalNAc
# Method in brief: as §1
# [4] = target: Neu5Ac(a2-6)Gal(b1-4)GlcNAc(b1-3)Gal(b1-4)GlcNAc(b1-3)[Neu5Ac(a2-6)Gal(b1-4)GlcNAc(b1-3)Gal(b1-4)GlcNAc(b1-6)]GalNAc
# Method in brief: as §1
# [5] = target: Neu5Ac(a2-6)Gal(b1-4)GlcNAc(b1-3)Gal(b1-4)GlcNAc(b1-6)[Gal(b1-3)]GalNAc
# Method in brief: as §1
# [6] = target: Neu5Ac(a2-6)Gal(b1-4)GlcNAc(b1-3)Gal(b1-4)[Fuc(a1-3)]GlcNAc(b1-3)Gal(b1-4)[Fuc(a1-3)]GlcNAc
# Method in brief: as §1
# [7] = target: Neu5Ac(a2-6)Gal(b1-4)GlcNAc(b1-3)GalNAc
# Method in brief: as §1
# [8] = target: Neu5Ac(a2-6)Gal(b1-4)GlcNAc(b1-3)[Neu5Ac(a2-6)Gal(b1-4)GlcNAc(b1-6)]GalNAc
# Method in brief: as §1
# [9] = target: Neu5Ac(a2-6)Gal(b1-4)GlcNAc(b1-6)GalNAc
# Method in brief: as §1
# [10] = target: Neu5Ac(a2-6)Gal(b1-4)GlcNAc(b1-6)[Gal(b1-3)GlcNAc(b1-3)]Gal(b1-4)Glc
# Method in brief: as §1
# [11] = target: Neu5Ac(a2-6)Gal(b1-4)GlcNAc(b1-6)[Gal(b1-3)]GalNAc
# Method in brief: as §1
# [12] = target: Neu5Ac(a2-6)Gal(b1-4)GlcNAc6S
# Method in brief: as §1
# Neu5Ac(a2-6)GalNAc = target: Neu5Ac(a2-6)GalNAc
# Method in brief: as §1
# [13] = target: Neu5Ac(a2-6)GalNAc(b1-4)GlcNAc
# Method in brief: as §1
# [14] = target: Neu5Ac(a2-6)GalNAc(b1-4)GlcNAc6S
# Method in brief: as §1
# [15] = target: Neu5Ac(a2-6)GlcNAc(b1-4)GlcNAc
# Method in brief: as §1
# [16] = target: Neu5Ac(a2-6)GlcNAc(b1-4)GlcNAc(b1-4)GlcNAc
# Method in brief: as §1
# Neu5Ac(a2-8)Neu5Ac = target: Neu5Ac(a2-8)Neu5Ac
# Method in brief: as §1
# [17] = target: Neu5Ac(a2-8)Neu5Ac(a2-3)Gal(b1-3)GalNAc(b1-4)[Neu5Ac(a2-3)]Gal(b1-4)Glc
# Method in brief: as §1
# [18] = target: Neu5Ac(a2-8)Neu5Ac(a2-3)Gal(b1-3)GalNAc(b1-4)[Neu5Ac(a2-8)Neu5Ac(a2-3)]Gal(b1-4)Glc
# Method in brief: as §1
# [19] = target: Neu5Ac(a2-8)Neu5Ac(a2-3)Gal(b1-4)Glc
# Method in brief: as §1
# [20] = target: Neu5Ac(a2-8)Neu5Ac(a2-3)Gal(b1-4)GlcNAc
# Method in brief: as §1
# [21] = target: Neu5Ac(a2-8)Neu5Ac(a2-3)[Gal(b1-3)GalNAc(b1-4)]Gal(b1-4)Glc
# Method in brief: as §1
# [22] = target: Neu5Ac(a2-8)Neu5Ac(a2-3)[GalNAc(b1-4)]Gal(b1-4)Glc
# Method in brief: as §1
# [23] = target: Neu5Ac(a2-8)Neu5Ac(a2-8)Neu5Ac
# Method in brief: as §1
# [24] = target: Neu5Ac(a2-8)Neu5Ac(a2-8)Neu5Ac(a2-3)Gal(b1-4)Glc
# Method in brief: as §1
# [25] = target: Neu5Ac(a2-8)Neu5Ac(a2-8)Neu5Ac(a2-3)[Gal(b1-3)GalNAc(b1-4)]Gal(b1-4)Glc
# Method in brief: as §1
# [26] = target: Neu5Ac(a2-8)Neu5Ac(a2-8)Neu5Ac(a2-3)[GalNAc(b1-4)]Gal(b1-4)Glc
# Method in brief: as §1
# [27] = target: Neu5Ac(a2-8)Neu5Ac(a2-8)Neu5Ac(a2-8)Neu5Ac(a2-3)[GalNAc(b1-4)]Gal(b1-4)Glc
# Method in brief: as §1
# [28] = target: Neu5Ac(a2-8)Neu5Gc(a2-3)Gal(b1-4)GlcNAc
# Method in brief: as §1
# [29] = target: Neu5Ac(b2-6)Gal(b1-4)GlcNAc
# Method in brief: as §1
# Neu5Ac(b2-6)GalNAc = target: Neu5Ac(b2-6)GalNAc
# Method in brief: as §1
# [30] = target: Neu5Ac9Ac(a2-3)Gal(b1-3)GlcNAc
# Method in brief: as §1
# [31] = target: Neu5Ac9Ac(a2-3)Gal(b1-4)GlcNAc
# Method in brief: as §1
# [32] = target: Neu5Ac9Ac(a2-6)Gal(b1-4)GlcNAc
# Method in brief: as §1
# [33] = target: Neu5Gc(a2-3)Gal(b1-3)GlcNAc
# Method in brief: as §1
# [34] = target: Neu5Gc(a2-3)Gal(b1-3)[Fuc(a1-4)]GlcNAc
# Method in brief: as §1
# Neu5Gc(a2-3)Gal(b1-4)Glc = target: Neu5Gc(a2-3)Gal(b1-4)Glc
# Method in brief: as §1
# [35] = target: Neu5Gc(a2-3)Gal(b1-4)GlcNAc
# Method in brief: as §1
# [36] = target: Neu5Gc(a2-3)Gal(b1-4)GlcNAc(b1-3)Gal(b1-4)GlcNAc(b1-2)Man(a1-3)[Neu5Gc(a2-3)Gal(b1-4)GlcNAc(b1-3)Gal(b1-4)GlcNAc(b1-2)Man(a1-6)]Man(b1-4)GlcNAc(b1-4)GlcNAc
# Method in brief: as §1
# [37] = target: Neu5Gc(a2-3)Gal(b1-4)[Fuc(a1-3)]GlcNAc
# Method in brief: as §1
# [38] = target: Neu5Gc(a2-6)Gal(b1-4)GlcNAc
# Method in brief: as §1
# Neu5Gc(a2-6)GalNAc = target: Neu5Gc(a2-6)GalNAc
# Method in brief: as §1
# [39] = target: Neu5Gc(a2-8)Neu5Ac(a2-3)Gal(b1-4)GlcNAc
# Method in brief: as §1
# [40] = target: Neu5Gc(a2-8)Neu5Gc(a2-3)Gal(b1-4)GlcNAc
# Method in brief: as §1
binder,measurement,setting,value
"CFEM-PPl (Pichia pastoris), F2QPV1 (protein) AVATPPACLLACAAEVVKESSDCDALNNIQCICENEGSAIHACLESTCPDGLSSTALQSFEDVCESVGTEANLDE",glycan array binding signal (z-score),[1],-0.307
same,glycan array binding signal (z-score),[2],0.117
same,glycan array binding signal (z-score),[3],-0.213
same,glycan array binding signal (z-score),[4],-0.2
same,glycan array binding signal (z-score),[5],0.607
same,glycan array binding signal (z-score),[6],-0.201
same,glycan array binding signal (z-score),[7],-0.218
same,glycan array binding signal (z-score),[8],-0.305
same,glycan array binding signal (z-score),[9],0.028
same,glycan array binding signal (z-score),[10],-0.133
same,glycan array binding signal (z-score),[11],0.557
same,glycan array binding signal (z-score),[12],-0.197
same,glycan array binding signal (z-score),Neu5Ac(a2-6)GalNAc,-0.163
same,glycan array binding signal (z-score),[13],-0.261
same,glycan array binding signal (z-score),[14],-0.282
same,glycan array binding signal (z-score),[15],-0.245
same,glycan array binding signal (z-score),[16],-0.075
same,glycan array binding signal (z-score),Neu5Ac(a2-8)Neu5Ac,-0.261
same,glycan array binding signal (z-score),[17],-0.232
same,glycan array binding signal (z-score),[18],-0.115
same,glycan array binding signal (z-score),[19],-0.241
same,glycan array binding signal (z-score),[20],-0.222
same,glycan array binding signal (z-score),[21],1.22
same,glycan array binding signal (z-score),[22],-0.209
same,glycan array binding signal (z-score),[23],-0.305
same,glycan array binding signal (z-score),[24],-0.328
same,glycan array binding signal (z-score),[25],-0.169
same,glycan array binding signal (z-score),[26],-0.258
same,glycan array binding signal (z-score),[27],-0.099
same,glycan array binding signal (z-score),[28],-0.326
same,glycan array binding signal (z-score),[29],-0.238
same,glycan array binding signal (z-score),Neu5Ac(b2-6)GalNAc,-0.345
same,glycan array binding signal (z-score),[30],-0.242
same,glycan array binding signal (z-score),[31],-0.318
same,glycan array binding signal (z-score),[32],-0.368
same,glycan array binding signal (z-score),[33],-0.292
same,glycan array binding signal (z-score),[34],-0.36
same,glycan array binding signal (z-score),Neu5Gc(a2-3)Gal(b1-4)Glc,-0.269
same,glycan array binding signal (z-score),[35],-0.269
same,glycan array binding signal (z-score),[36],-0.14
same,glycan array binding signal (z-score),[37],-0.197
same,glycan array binding signal (z-score),[38],-0.345
same,glycan array binding signal (z-score),Neu5Gc(a2-6)GalNAc,-0.264
same,glycan array binding signal (z-score),[39],-0.19
same,glycan array binding signal (z-score),[40],-0.14
